{"source": "the supplement of paper PMC8728848", "experiment_in_all_cases": "glycan array binding signal (z-score within array); higher = stronger binding", "settings_in_all_cases": "glycan notation: IUPAC condensed, linker removed", "key": {"Gal(a1-3)Gal": {"target": "Gal(a1-3)Gal", "procedure,_shortened": "(§1)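 From the Consortium for Functional Glycomics database, 3228 arrays were curated, keeping only those whose protein sequence was available. Binding is given as a within-array Z-score averaged across arrays sharing a protein sequence and across linkers. Negative Z-scores can be read as non-binding.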"}, "Gal(a1-3)Gal(b1-3)GlcNAc": {"target": "Gal(a1-3)Gal(b1-3)GlcNAc", "procedure,_shortened": "as §1"}, "[1]": {"target": "Gal(a1-3)Gal(b1-3)GlcNAc(b1-2)Man(a1-3)[Gal(a1-3)Gal(b1-3)GlcNAc(b1-2)Man(a1-6)]Man(b1-4)GlcNAc(b1-4)GlcNAc", "procedure,_shortened": "as §1"}, "[2]": {"target": "Gal(a1-3)Gal(b1-3)GlcNAc(b1-3)GalNAc", "procedure,_shortened": "as §1"}, "[3]": {"target": "Gal(a1-3)Gal(b1-3)[Fuc(a1-4)]GlcNAc(b1-2)Man(a1-3)[Gal(a1-3)Gal(b1-3)[Fuc(a1-4)]GlcNAc(b1-2)Man(a1-6)]Man(b1-4)GlcNAc(b1-4)GlcNAc", "procedure,_shortened": "as §1"}, "Gal(a1-3)Gal(b1-4)Glc": {"target": "Gal(a1-3)Gal(b1-4)Glc", "procedure,_shortened": "as §1"}, "Gal(a1-3)Gal(b1-4)GlcNAc": {"target": "Gal(a1-3)Gal(b1-4)GlcNAc", "procedure,_shortened": "as §1"}, "[4]": {"target": "Gal(a1-3)Gal(b1-4)GlcNAc(b1-3)GalNAc", "procedure,_shortened": "as §1"}, "[5]": {"target": "Gal(a1-3)Gal(b1-4)[Fuc(a1-3)]GlcNAc", "procedure,_shortened": "as §1"}, "[6]": {"target": "Gal(a1-3)Gal(b1-4)[Fuc(a1-3)]GlcNAc(b1-2)Man(a1-3)[Gal(a1-3)Gal(b1-4)[Fuc(a1-3)]GlcNAc(b1-2)Man(a1-6)]Man(b1-4)GlcNAc(b1-4)GlcNAc", "procedure,_shortened": "as §1"}, "Gal(a1-3)GalNAc": {"target": "Gal(a1-3)GalNAc", "procedure,_shortened": "as §1"}, "[7]": {"target": "Gal(a1-3)[Gal(a1-4)]Gal(b1-4)GlcNAc", "procedure,_shortened": "as §1"}, "[8]": {"target": "Gal(a1-4)Gal(b1-3)GlcNAc(b1-2)Man(a1-3)[Gal(a1-4)Gal(b1-3)GlcNAc(b1-2)Man(a1-6)]Man(b1-4)GlcNAc(b1-4)GlcNAc", "procedure,_shortened": "as §1"}, "Gal(a1-4)Gal(b1-4)Glc": {"target": "Gal(a1-4)Gal(b1-4)Glc", "procedure,_shortened": "as §1"}, "Gal(a1-4)Gal(b1-4)GlcNAc": {"target": "Gal(a1-4)Gal(b1-4)GlcNAc", "procedure,_shortened": "as §1"}, "[9]": {"target": "Gal(a1-4)Gal(b1-4)GlcNAc(b1-2)Man(a1-3)[Gal(a1-4)Gal(b1-4)GlcNAc(b1-2)Man(a1-6)]Man(b1-4)GlcNAc(b1-4)GlcNAc", "procedure,_shortened": "as §1"}, "[10]": {"target": "Gal(a1-4)Gal(b1-4)GlcNAc(b1-3)Gal(b1-4)Glc", "procedure,_shortened": "as §1"}, "Gal(a1-4)GlcNAc": {"target": "Gal(a1-4)GlcNAc", "procedure,_shortened": "as §1"}, "Gal(a1-6)Glc": {"target": "Gal(a1-6)Glc", "procedure,_shortened": "as §1"}, "Gal(b1-2)Gal": {"target": "Gal(b1-2)Gal", "procedure,_shortened": "as §1"}, "Gal(b1-3)Gal": {"target": "Gal(b1-3)Gal", "procedure,_shortened": "as §1"}, "Gal(b1-3)Gal(b1-4)GlcNAc": {"target": "Gal(b1-3)Gal(b1-4)GlcNAc", "procedure,_shortened": "as §1"}, "[11]": {"target": "Gal(b1-3)Gal(b1-4)GlcNAc(b1-2)Man(a1-3)[Gal(b1-3)Gal(b1-4)GlcNAc(b1-2)Man(a1-6)]Man(b1-4)GlcNAc(b1-4)GlcNAc", "procedure,_shortened": "as §1"}, "Gal(b1-3)GalNAc": {"target": "Gal(b1-3)GalNAc", "procedure,_shortened": "as §1"}, "[12]": {"target": "Gal(b1-3)GalNAc(a1-3)[Fuc(a1-2)]Gal(b1-4)Glc", "procedure,_shortened": "as §1"}, "[13]": {"target": "Gal(b1-3)GalNAc(a1-3)[Fuc(a1-2)]Gal(b1-4)GlcNAc", "procedure,_shortened": "as §1"}, "[14]": {"target": "Gal(b1-3)GalNAc(b1-3)Gal(a1-4)Gal(b1-4)Glc", "procedure,_shortened": "as §1"}, "[15]": {"target": "Gal(b1-3)GalNAc(b1-4)Gal(b1-4)Glc", "procedure,_shortened": "as §1"}, "[16]": {"target": "Gal(b1-3)GalNAc(b1-4)[Neu5Ac(a2-3)]Gal(b1-4)Glc", "procedure,_shortened": "as §1"}, "Gal(b1-3)GlcNAc": {"target": "Gal(b1-3)GlcNAc", "procedure,_shortened": "as §1"}, "[17]": {"target": "Gal(b1-3)GlcNAc(a1-6)Gal(b1-4)GlcNAc", "procedure,_shortened": "as §1"}, "[18]": {"target": "Gal(b1-3)GlcNAc(b1-2)Man(a1-3)[Gal(b1-3)GlcNAc(b1-2)Man(a1-6)]Man(b1-4)GlcNAc(b1-4)GlcNAc", "procedure,_shortened": "as §1"}, "[19]": {"target": "Gal(b1-3)GlcNAc(b1-2)Man(a1-3)[Gal(b1-3)GlcNAc(b1-2)Man(a1-6)]Man(b1-4)GlcNAc(b1-4)[Fuc(a1-6)]GlcNAc", "procedure,_shortened": "as §1"}, "[20]": {"target": "Gal(b1-3)GlcNAc(b1-2)[Gal(b1-3)GlcNAc(b1-6)]Man(a1-6)[Gal(b1-3)GlcNAc(b1-2)Man(a1-3)]Man(b1-4)GlcNAc(b1-4)GlcNAc", "procedure,_shortened": "as §1"}, "[21]": {"target": "Gal(b1-3)GlcNAc(b1-3)Gal(b1-3)GlcNAc", "procedure,_shortened": "as §1"}, "[22]": {"target": "Gal(b1-3)GlcNAc(b1-3)Gal(b1-4)Glc", "procedure,_shortened": "as §1"}, "[23]": {"target": "Gal(b1-3)GlcNAc(b1-3)Gal(b1-4)GlcNAc", "procedure,_shortened": "as §1"}, "[24]": {"target": "Gal(b1-3)GlcNAc(b1-3)Gal(b1-4)GlcNAc(b1-6)[Gal(b1-3)GlcNAc(b1-3)]Gal(b1-4)Glc", "procedure,_shortened": "as §1"}, "[25]": {"target": "Gal(b1-3)GlcNAc(b1-3)Gal(b1-4)[Fuc(a1-3)]GlcNAc(b1-6)[Gal(b1-3)GlcNAc(b1-3)]Gal(b1-4)Glc", "procedure,_shortened": "as §1"}, "[26]": {"target": "Gal(b1-3)GlcNAc(b1-3)GalNAc", "procedure,_shortened": "as §1"}, "[27]": {"target": "Gal(b1-3)GlcNAc(b1-6)Gal(b1-4)GlcNAc", "procedure,_shortened": "as §1"}, "[28]": {"target": "Gal(b1-3)[Fuc(a1-4)]GlcNAc", "procedure,_shortened": "as §1"}, "[29]": {"target": "Gal(b1-3)[Fuc(a1-4)]GlcNAc(b1-2)Man(a1-3)[Gal(b1-3)[Fuc(a1-4)]GlcNAc(b1-2)Man(a1-6)]Man(b1-4)GlcNAc(b1-4)GlcNAc", "procedure,_shortened": "as §1"}, "[30]": {"target": "Gal(b1-3)[Fuc(a1-4)]GlcNAc(b1-2)Man(a1-3)[Gal(b1-3)[Fuc(a1-4)]GlcNAc(b1-2)Man(a1-6)]Man(b1-4)GlcNAc(b1-4)[Fuc(a1-6)]GlcNAc", "procedure,_shortened": "as §1"}, "[31]": {"target": "Gal(b1-3)[Fuc(a1-4)]GlcNAc(b1-3)Gal(b1-3)[Fuc(a1-4)]GlcNAc", "procedure,_shortened": "as §1"}}, "note": "The other results are listed elsewhere or left out."}
{"binder": "RS2L (Ralstonia solanacearum), B5RXL5_RALSO (protein) MAQQGVFTLPANTSFGVTAFANAANTQTIQVLVDNVVKATFTGSGTSDKLLGSQVLNSGSGAIKIQVSVNGKPSDLVSNQTILANKLNFAMVGSEDGTDNDYNDGIAVLNWPLG", "values": [{"measurement": "glycan array binding signal (z-score)", "setting": "Gal(a1-3)Gal", "result": -0.251}, {"measurement": "glycan array binding signal (z-score)", "setting": "Gal(a1-3)Gal(b1-3)GlcNAc", "result": -0.251}, {"measurement": "glycan array binding signal (z-score)", "setting": "[1]", "result": -0.193}, {"measurement": "glycan array binding signal (z-score)", "setting": "[2]", "result": -0.245}, {"measurement": "glycan array binding signal (z-score)", "setting": "[3]", "result": 0.051}, {"measurement": "glycan array binding signal (z-score)", "setting": "Gal(a1-3)Gal(b1-4)Glc", "result": -0.243}, {"measurement": "glycan array binding signal (z-score)", "setting": "Gal(a1-3)Gal(b1-4)GlcNAc", "result": -0.246}, {"measurement": "glycan array binding signal (z-score)", "setting": "[4]", "result": -0.244}, {"measurement": "glycan array binding signal (z-score)", "setting": "[5]", "result": -0.238}, {"measurement": "glycan array binding signal (z-score)", "setting": "[6]", "result": -0.248}, {"measurement": "glycan array binding signal (z-score)", "setting": "Gal(a1-3)GalNAc", "result": -0.246}, {"measurement": "glycan array binding signal (z-score)", "setting": "[7]", "result": -0.247}, {"measurement": "glycan array binding signal (z-score)", "setting": "[8]", "result": 0.267}, {"measurement": "glycan array binding signal (z-score)", "setting": "Gal(a1-4)Gal(b1-4)Glc", "result": -0.244}, {"measurement": "glycan array binding signal (z-score)", "setting": "Gal(a1-4)Gal(b1-4)GlcNAc", "result": -0.244}, {"measurement": "glycan array binding signal (z-score)", "setting": "[9]", "result": -0.239}, {"measurement": "glycan array binding signal (z-score)", "setting": "[10]", "result": -0.246}, {"measurement": "glycan array binding signal (z-score)", "setting": "Gal(a1-4)GlcNAc", "result": -0.238}, {"measurement": "glycan array binding signal (z-score)", "setting": "Gal(a1-6)Glc", "result": -0.251}, {"measurement": "glycan array binding signal (z-score)", "setting": "Gal(b1-2)Gal", "result": -0.247}, {"measurement": "glycan array binding signal (z-score)", "setting": "Gal(b1-3)Gal", "result": -0.25}, {"measurement": "glycan array binding signal (z-score)", "setting": "Gal(b1-3)Gal(b1-4)GlcNAc", "result": -0.247}, {"measurement": "glycan array binding signal (z-score)", "setting": "[11]", "result": -0.227}, {"measurement": "glycan array binding signal (z-score)", "setting": "Gal(b1-3)GalNAc", "result": -0.245}, {"measurement": "glycan array binding signal (z-score)", "setting": "[12]", "result": -0.245}, {"measurement": "glycan array binding signal (z-score)", "setting": "[13]", "result": -0.241}, {"measurement": "glycan array binding signal (z-score)", "setting": "[14]", "result": -0.248}, {"measurement": "glycan array binding signal (z-score)", "setting": "[15]", "result": -0.244}, {"measurement": "glycan array binding signal (z-score)", "setting": "[16]", "result": -0.238}, {"measurement": "glycan array binding signal (z-score)", "setting": "Gal(b1-3)GlcNAc", "result": -0.242}, {"measurement": "glycan array binding signal (z-score)", "setting": "[17]", "result": -0.242}, {"measurement": "glycan array binding signal (z-score)", "setting": "[18]", "result": 0.345}, {"measurement": "glycan array binding signal (z-score)", "setting": "[19]", "result": -0.142}, {"measurement": "glycan array binding signal (z-score)", "setting": "[20]", "result": 0.497}, {"measurement": "glycan array binding signal (z-score)", "setting": "[21]", "result": -0.239}, {"measurement": "glycan array binding signal (z-score)", "setting": "[22]", "result": -0.23}, {"measurement": "glycan array binding signal (z-score)", "setting": "[23]", "result": -0.24}, {"measurement": "glycan array binding signal (z-score)", "setting": "[24]", "result": -0.246}, {"measurement": "glycan array binding signal (z-score)", "setting": "[25]", "result": -0.239}, {"measurement": "glycan array binding signal (z-score)", "setting": "[26]", "result": -0.241}, {"measurement": "glycan array binding signal (z-score)", "setting": "[27]", "result": -0.25}, {"measurement": "glycan array binding signal (z-score)", "setting": "[28]", "result": -0.07}, {"measurement": "glycan array binding signal (z-score)", "setting": "[29]", "result": -0.247}, {"measurement": "glycan array binding signal (z-score)", "setting": "[30]", "result": 1.2}, {"measurement": "glycan array binding signal (z-score)", "setting": "[31]", "result": 0.028}]}
